Variants at the background level are over-represented here.
B1: TPR 5TU (parent)
chain: GGAUCUUCUCGAUCUAACAAAAAAGACAAAUCUGCCACAAAGCUUGAGAGCAUCUUCGGAUGCAGAGGCGGCAGCCUUCGGUGGCGCGAUAGCGCCAACGUUCUCAACUAUGACACGCAAAACGCGUGCUCCGUUGAAUGGAGUUUAUCAUG

Variants of: B1
Assay: polymerase ribozyme fitness, log enrichment relative to wild type (log ratio); higher = more active; in vitro selection for triplet polymerase activity
Outline: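 One round of in vitro selection, in triplicate, was applied to PCR-built, transcribed mutant libraries of each subunit of a heterodimeric triplet polymerase ribozyme. The steps were annealing with a biotinylated primer, partner subunit and triplets, incubation frozen at −7 °C, gel excision of extended constructs, streptavidin-bead capture and RT-PCR. Fitness is the logarithm, base 2, of genotype enrichment over wild-type enrichment from inverse-variance-weighted replicate averages of Illumina-sequenced inputs and outputs, keeping genotypes with ≥10 input reads and ≥1 read per output.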
With GGAUCUUCUCGAUCUAACAAAAAAGACAAAUCUGCCAAAAAGCUUGAGAGUAUCUUCGGAUGCAGAGGCGGCAGCCUUCGGUGGCGCGAUAGGGCCAACGUUCUCAACUAUGACACGCAAAACGCGUGCUCCGUUGAAUGGAGUUUAUCAUG [C38A C51U C93G] the “polymerase ribozyme fitness (log ratio)” value was ≤ -4.2.
In the case of GGAUCUUCUCGAUCUAACAAAAAAGACAAAUCUGCCAAAAAGCUUGAGAGUAUCUUCGGAUGCAGAGGCGGCAGCCUUCGGUGGCGCGAUAGCGACAACGUUCUCAACUAUGACACGCAAAACGCGUGCUACGUUGAAUGGAGUUUAUCAUG [C38A C51U C95A C131A], the “polymerase ribozyme fitness (log ratio)” value is reported as -3.34.
In the case of GGAUCUUCUCGAUCUAACAAAAAAGACAAAUCUGCCAAAAAGCUUGAGAGUAUCUGCGGAUGCAGAGGCGGCAGCCUUCGGUGGCGCGAUUGCGCCAACGUUCUCAACUAUGACACGCAAAACGCGUGCUCCGUUCAAUGGAGUAUAUCAUG [C38A C51U U56G A91U G136C U145A], the “polymerase ribozyme fitness (log ratio)” value is reported as ≤ -4.2.
With GGAUCUUCUCGAUCUAACAAAAAAGACAAAUCUGCCAAAAAGCUUGAGAGCAUAUUCGGAUGCAGAGGCGGCAGCCUUCGGUGGCGCGAUAGCGCCAACGUUCUCAACUAUGACACGCAAAAGGCGUGCUCCGUUGAAUGGAGUUUAUCAGG [C38A C54A C123G U151G] the “polymerase ribozyme fitness (log ratio)” value was ≤ -4.2.
In the case of GGAUCUUCUCGAUCUAACAAAAAAGACAAAUCUGCCAAAAAGCUUGAGAGCAUUUUCGGAUGCAGAGGCGGCUGCCUUCGGUGGCGCGAUAGCGCCAACGUUCUCAACUAUGACACGCAAAACGCGUGCUCCGUUGAAUGGAGUUUAUCAUG [C38A C54U A73U], the “polymerase ribozyme fitness (log ratio)” value is reported as -2.15.
In the case of GGAUCUUCUCGAUCUAACAAAAAAGACAAAUCUGCCAAAAAGCUUGAGAGCAUCUUCGGAUGCAGAGGAGGCAGCCUUCGGUGGCGCGAUAGCGCCAACGUUCUCAACUAUGACACGCAAAACGCGUGCUCCCUUGAAUGGAGUUUAUCCUG [C38A C69A G133C A150C], the “polymerase ribozyme fitness (log ratio)” value is reported as ≤ -4.2.
In the case of GGAUCUUCUCGAUCUAACAAAAAAGACAAAUCUGCCAAAAAGCUUGAGAGCAUCUUCGGAUGCAGAGGUGGCAGCCUUCGGUAGCGCGAUGGCGCCAACGUUCUCAACGAUGACACGCAAAACGCGUGCUCCGUUGAAUGGAGUUUAUCAUG [C38A C69U G83A A91G U109G], the “polymerase ribozyme fitness (log ratio)” value is reported as ≤ -4.2.
With GGAUCUUCUCGAUCUAACAAAAAAGACAAAUCUGCCAAAAAGCUUGAGAGCAUCUUCGGAUGCAGAGGCGGAAGCCUUCGGUGGCGCGAUAGCGCCAACGUUCUCACCGAUGACACGCAAAACGCGUGCUCCGUUGAAUGGAGUUUAUCAUG [C38A C72A A107C U109G] the “polymerase ribozyme fitness (log ratio)” value was ≤ -4.2.
With GGAUCUUCUCGAUCUAACAAAAAAGACAAAUCUGCCAAAAAGCUUGAGAGCAUCUUCGGAUGCAGAGGCGGCAGCAUUCGGUGGCGCGAUAGCGCCGACGUUCUCAACUAUGACACGCAAAACGCGUGCUCCGGUGAAUGGAGUUUAUCAUG [C38A C76A A97G U134G] the “polymerase ribozyme fitness (log ratio)” value was -3.3.
With GGAUCUUCUCGAUCUAACAAAAAAGACAAAUCUGCCAAAAAGCUUGAGAGCAUCUUCGGAUGCAGAGGCGGCAGCGUUCGGUGGCGCGAUAGAGCCAACGUUCUCAACUAUGACACGCAAAACGCGUGCUCCGUUGAAUGGAGUUUACCAUG [C38A C76G C93A U148C] the “polymerase ribozyme fitness (log ratio)” value was ≤ -4.2.
With GGAUCUUCUCGAUCUAACAAAAAAGACAAAUCUGCCAAAAAGCUUGAGAGCAUCUUCGGAUGCAGAGGCGGCAGCUUUCGGUGGCGCGAUAGCGCCAACGUUCUCAACUGUGGCACGCAAAACGCGUGCUCCGUUGAAUGGAGUUUAUCAUA [C38A C76U A110G A113G G152A] the “polymerase ribozyme fitness (log ratio)” value was ≤ -4.2.
In the case of GGAUCUUCUCGAUCUAACAAAAAAGACAAAUCUGCCAAAAAGCUUGAGAGCAUCUUCGGAUGCAGAGGCGGCAGCCUUAGGUGGCGCGAUAGCGCCAACGUUCUCAACUAUGACACGCAAAACGCGUGCUCCGUUGAAUCGAGUUUAUCAUG [C38A C79A G140C], the “polymerase ribozyme fitness (log ratio)” value is reported as ≤ -4.2.
With GGAUCUUCUCGAUCUAACAAAAAAGACAAAUCUGCCAAAAAGCUUGAGAGCAUCUUCGGAUGCAGAGGCGGCAGCCUUCGGUGGAGCGAUAGCGCCAACGUUCUCAACUAUGACACGCAAAACGCGUGCUCCGUUGAAUGGAGUUUAUCAUG [C38A C85A] the “polymerase ribozyme fitness (log ratio)” value was -2.61.
With GGAUCUUCUCGAUCUAACAAAAAAGACAAAUCUGCCAAAAAGCUUGAGAGCAUCUUCGGAUGCAGAGGCGGCAGCCUUCGGUGGAGCGAUAGCGCCAACGUUCUCAACUAUGACACGCAAAGCGCGUGCUCCGUUGAAUGGAGUUUAGCAUG [C38A C85A A122G U148G] the “polymerase ribozyme fitness (log ratio)” value was ≤ -4.2.
For GGAUCUUCUCGAUCUAACAAAAAAGACAAAUCUGCCAAAAAGCUUGAGAGCAUCUUCGGAUGCAGAGGCGGCAGCCUUCGGUGGGGCGAUAGCGCUAACGUUCUCAAAUAUGACACGCGAAACGCGUGCUCCCUUGAAUGGAGUUUAUCAUG [C38A C85G C96U C108A A119G G133C], the “polymerase ribozyme fitness (log ratio)” value was ≤ -4.2.
With GGAUCUUCUCGAUCUAACAAAAAAGACAAAUCUGCCAAAAAGCUUGAGAGCAUCUUCGGAUGCAGAGGCGGCAGCCUUCGGUGGCGUGAUAGCGCCAGCGUUCUCCACUAUGACACGCAAAACGAGUGCUCCGUAGAAUGGAGUUUAUAAUG [C38A C87U A98G A106C C125A U135A C149A] the “polymerase ribozyme fitness (log ratio)” value was ≤ -4.2.
For GGAUCUUCUCGAUCUAACAAAAAAGACAAAUCUGCCAAAAAGCUUGAGAGCAUCUUCGGAUGCAGAGGCGGCAGCCUUCGGUGGCGUGAUAGCGCCAACGUUCUCAUCUAUGACACGCAAAACGCGUGCUCCGUUGAAUGGAGUUUAUCAUG [C38A C87U A107U], the “polymerase ribozyme fitness (log ratio)” value was -4.17.
In the case of GGAUCUUCUCGAUCUAACAAAAAAGACAAAUCUGCCAAAAAGCUUGAGAGCAUCUUCGGAUGCAGAGGCGGCAGCCUUCGGUGGCGCGAUAGAGCCAACGUUCUCAACUAUGACACGCAAAACGCGUGCUCCGUUAAAUGGAGUUUAUCAUG [C38A C93A G136A], the “polymerase ribozyme fitness (log ratio)” value is reported as -1.47.
For GGAUCUUCUCGAUCUAACAAAAAAGACAAAUCUGCCAAAAAGCUUGAGAGCAUCUUCGGAUGCAGAGGCGGCAGCCUUCGGUGGCGCGAUAGCGGCAAUGUUCUCAACUAUGACACGCAAAACGCGUGCUCCGUUGAGUGGAGUUUAUCAUG [C38A C95G C99U A138G], the “polymerase ribozyme fitness (log ratio)” value was ≤ -4.2.

From the RNAGym collection of RNA variant scans (doi:10.1073/pnas.2313332121)
